Experimental data as given in the supplement of paper PMC11417369.
± gives the standard deviation of the averaged measurements. The list shows a part of the results.

The sequences below were run on PfAP2-EXP AP2 domain (GST-tagged) (assay: gcPBM binding intensity (ln(normalized median fluorescence intensity)); higher = stronger DNA binding).
Outline: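 In this array assay, P. falciparum DNA-binding domains with a GST tag, expressed in E. coli, were applied for 1 h to primer-extended double-stranded 36-bp intergenic genomic probes and negative controls on an Agilent 4 × 180k array. Bound protein was visualised with Alexa488 anti-GST antibody at 488 nm. Binding intensity is the highest Masliner-normalised natural-log median intensity across replicate spots of either probe orientation.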

Sequence | gcPBM binding intensity (ln)
CACAAACAAAAACACACACACACACCGACAAAAATG [CACACA_site5362] | 8.59 ± 0.61
TTCTTTCTAGAATATTGTACATATATTGTTATTATA [XGTACX_site8425] | 8.54 ± 0.35
AAAAGAAGATAATACAGTACAGAATAATATAAAATA [XGTACX_site5962] | 8.82 ± 0.3
TATAAATATTTATACACACACACATTAATACCTATA [CACACA_site7604] | 8.89 ± 0.33
AGAAAGAAGATATATACACACAAAAAAAGATATATA [CACACA_site6779] | 8.79 ± 0.4
TTTTGTTAAAAAGATGTATATTTTATAAATATTTAT [CACACA_negctrl_site101] | 8.01 ± 0.45
AAATAAAATAAATAATATAAAATAATATATAAAAAA [CACACA_negctrl_site1777] | 8.35 ± 0.35
ATTTTTAAATACAGTACACACATGGGTTTAAATTAT [CACACA_site2884] | 8.63 ± 0.38
TATTCTAGAATTTTAACACACAAGAATATAAACTTT [CACACA_site6757] | 8.26 ± 0.4
TATTTATATTTATATACACACATATATACCTATATA [CACACA_site7820] | 8.43 ± 0.35
GATTATTTTAGAAGTACACACATTTATATATAATAA [CACACA_site5429] | 8.61 ± 0.13
TCCTATAAACAAATTTGTACATATAAGAATATATTC [XGTACX_site3892] | 8.62 ± 0.38
TTATTATTCTTAAGGATATAACAAAAAAGAAAAATT [CACACA_negctrl_site1402] | 8.47 ± 0.5
GGTTATATGATAGGATGTACAATTAAAAGTAAATAT [XGTACX_site5083] | 8.86 ± 0.38
TAAAATATAATGATCACACATATAAACAAGTGGGTA [CACACA_site4651] | 8.58 ± 0.42
TATGGATAAATAAATACACACATAAATTTAAATATA [CACACA_site1282] | 8.58 ± 0.47
GCCGCACCCAGATACGCACACAAGAAAAAAATATTC [CACACA_site3456] | 8.63 ± 0.26
TGAACATTATAGAAAAGTACTTAGTTTTTAAAAAGA [XGTACX_site6864] | 8.57 ± 0.42
TATTCAAAACGGTATTGTACAAATTTTATAATTTAA [XGTACX_site6928] | 8.34 ± 0.47
TATAAACGCACCTACACACACAACGTAAATGCATTG [CACACA_site7120] | 9.1 ± 0.16
ATGTGTTTGTATATATGTACATATTTATGTTATTTC [XGTACX_site6960] | 9.02 ± 0.52
AATTTAATTGTGAGAGTGCGTACTGCTCCACATATA | 8.61 ± 0.28
TATATATATAAATACACACACACAAAAAAAAAAAAA [CACACA_site4930] | 8.6 ± 0.34

Sequence | gcPBM binding intensity (ln)
AAAAAAAAAAAAAAAAAAAAAAAAAAATGAGATACA [GTGCAC_negctrl_site160] | 9.09 ± 0.014
TTTTGATATATGAATATTAAGTTATATAATATTTTA [TGCATGCA_negctrl_site39] | 7.92 ± 0.28
TACAGTAAAAATAGTTGTACTTGTTTATTTCTTCTT [XGTACX_site7674] | 8.37 ± 0.38
AAAAGGATATATGAAAGTACAAAGGTATAGTATATT [XGTACX_site7385] | 9.02 ± 0.31
ATAATACCAGAATAGATTTAAATGAATATTTTATTT [CACACA_negctrl_site476] | 8.22 ± 0.44
ATCTTATCATTTTAAAGTACATAATTAATTCTTTTT [XGTACX_site3999] | 8.59 ± 0.36
TATAACAAATAAAAATGTACATATATATAATATATA [XGTACX_site6173] | 8.4 ± 0.64
ATGATATATTTAATAGTGCACTAATTAAAATTATTA [GTGCAC_site9418] | 8.43 ± 0.071
TATTTATTTATTTTGTTATAATTAAAATGGATACAT [XGTACX_negctrl_site387] | 8.24 ± 0.33
CTACACACTTATAAATGTACAGGATTTAAGTATATG [XGTACX_site8245] | 8.39 ± 0.33
AGTAGTCTGGAGAAGAGTACATAGTATCTGGTAGCT [XGTACX_site2017] | 8.71 ± 0.35
AAATATAATAATACATTGCACATATATTATATATAT [TGCATGCA_negctrl_site611] | 8.565 ± 0.049
TGTAATAATCTTCATTTCTTTTTTTTTTTTTTTTGT [CACACA_negctrl_site1388] | 8.17 ± 0.24
AGTGAATATTACGAAACACACAAAAAAATACATTTC [CACACA_site511] | 8.74 ± 0.31
TAACTTAATAAAAAAAGTACATATATTTTTAATAAA [XGTACX_site2707] | 8.18 ± 0.16
GTTTATATGTTCATAGTGCATATATGTTGATTTATT | 8.77 ± 0.29
TATAAAAAAAAAAAAAAAAAAAAAAAAAAAAAAAAA [TGCATGCA_negctrl_site42] | 7.88 ± 0.46
TTTTTTTTTTTTTACTGTACTTAATAAGATTGAATA [XGTACX_site2384] | 8.49 ± 0.48
CAGGAGAGAAAATATCGTACAAGCAAAAATAAGTGG [XGTACX_site8557] | 9.01 ± 0.49
AAATTATAAAAATGTAGTACAGACAATATATTCGTA [XGTACX_site8307] | 8.75 ± 0.49
ATAAATATTATTTTACGTACATATTTATGAAGTATT [XGTACX_site8746] | 8.44 ± 0.3
AAATTATATACCACAGTGCAAAAGGCAGGTATACGT | 8.94 ± 0.3
TGTGTATATATGCTGGTGCAACTTTAAAAAATAATC | 8.78 ± 0.042

Sequence | gcPBM binding intensity (ln)
TATTATTTTAAGATTGTTTATGTAAAGAATTATGAA [CACACA_negctrl_site445] | 8.05 ± 0.49
TATATTGCAAAAAGTACACACATAAATAAATACATA [CACACA_site6589] | 8.79 ± 0.37
TTTTTTTTTTTTTGCACACACATATATAAATATATA [CACACA_site3949] | 8.68 ± 0.42
GTAGAGAAAAAAATGTGGACACAAAAAATAAAAAGG [XGTACX_site4058] | 9.05 ± 0.3
AAAAAAAAAAAAAAAGTGCATTAATAAATTTTAATA | 8.47 ± 0.33
TTTCCCTACCAAAAGTGTACTTATACATATTTTTAT [XGTACX_site5495] | 8.63 ± 0.42
ATACGAAAATATTTTGCACACTATAATTATTCATAT [CACACA_site1765] | 8.92 ± 0.33
ACATATTATTCTTCTTGTACACATAAATTTTATAAA [XGTACX_site299] | 9.02 ± 0.34
ACATCTATGTATAATACACACACTAATATATAATTG [CACACA_site5134] | 8.4 ± 0.41
TTTTTTTCATAATATACACACAAAAAAAAAAAAAAA [CACACA_site3224] | 8.14 ± 0.45
TATACTCATATATAAACACACAAAAAAAAAAAAAAA [CACACA_site5165] | 8.37 ± 0.45
ATATATATATATATGTGTACATATATATATCATATG [XGTACX_site3126] | 10.1 ± 0.46
ACACAATGTAGTGTATAAATACAATAAAAGGTTGTA [TGCATGCA_negctrl_site251] | 8.52 ± 0.37
TCAGAAATATTACAAAGTACATGCAACGAAAATTTC [XGTACX_site5061] | 8.695 ± 0.007
TCTTATAATTTACCTACACACAGGAAATATATAAAT [CACACA_site294] | 8.36 ± 0.4
TGATATTTAAATTTTGCACACGCATATGAAATTAGG [CACACA_site1034] | 8.51 ± 0.23
ATGACGTAGTGGTGTACACACATGGTACCTTTATTC [CACACA_site1547] | 9.27 ± 0.53
AAAAAAATATTCAAAGCATGCCTATTTACACATATT [TGCATGCA_site806] | 8.78 ± 0.35
TCTATTATCCTTTGCACACAAAATAAATGAAAAAAT [CACACA_site3029] | 8.58 ± 0.41
ATATAAGTTTTTTCTCAAAAAGTATAACGAGCATGA [CACACA_negctrl_site1375] | 8.72 ± 0.44
CCCACGTATATTTTGTGTACATAAATAAATAAATAA [XGTACX_site4046] | 9.22 ± 0.48
TTTGATAAATGATACACACACAATATTTATAAAATA [CACACA_site7040] | 8.54 ± 0.52
ACATTATATAAATATATACATATATATATATATAAA [GTGCAC_negctrl_site115] | 8.13 ± 0.32

Sequence | gcPBM binding intensity (ln)
TGTCATGATACATACACACACATACACATACACATA [CACACA_site2135] | 8.71 ± 0.45
TATTTAATTATATAAAATTAAATTTTTAATTCTTCC [CACACA_negctrl_site473] | 8.14 ± 0.47
AAACAACAAAAATGATATATATAAAATTTATAATAT [XGTACX_negctrl_site185] | 8.47 ± 0.36
TATGGATTACACAATTGTACAAGAAAAATGTAAATA [XGTACX_site4040] | 8.56 ± 0.17
ATGCATAAAAGAAATACACACATAAATATATAAATA [CACACA_site2163] | 8.74 ± 0.23
TATAAACTTAATTTGAGTACTTAATAATAATTTTGT [XGTACX_site3730] | 8.04 ± 0.33
ATTTATGATATGTAAACATGCATAAAAATTTCAAAA [TGCATGCA_site858] | 8.23 ± 0.34
AATGGGTTAGCACATACACACCAATATATTATATAT [CACACA_site9011] | 8.57 ± 0.38
TATATATGTATATATGGTACAGAATATTCTACATTA [XGTACX_site5077] | 8.53 ± 0.33
CAATCATTTTATTGTTGTACAGTAATTATGAATTCA [XGTACX_site7508] | 8.4 ± 0.29
CATCCACATATATGTACACACATATATATATATATA [CACACA_site2964] | 10.1 ± 0.52
TACCACATCGGTAAATGTACTTATAAAAAAAAAAAA [XGTACX_site3364] | 8.07 ± 0.42
TTGGTACCTATAGATACACACATATATACATATATA [CACACA_site3402] | 8.46 ± 0.33
TAAGAGTAGTTATATACACACATGTATATTATAGTT [CACACA_site6815] | 8.27 ± 0.4
TATATATATATATTATGTACGTATCAGTTTGTATGT [XGTACX_site695] | 9.85 ± 0.3
ATTTTTAATATTATTACACACACTAAAAAAAAAAAA [CACACA_site1067] | 8.39 ± 0.52
CACGACATTAACAATACATGCAGAAAAACAAAAAAT [TGCATGCA_site689] | 9.39 ± 0.32
TTATAAATTAGAGGTACACACAAAAAAAAAAAGAAA [CACACA_site6740] | 8.71 ± 0.47
TATAAGAGAAGAAGAAAAAAAAGGTTTCTATAGAAA [XGTACX_negctrl_site421] | 8.76 ± 0.52
AAGAAGCATAAATGTACACACATATTTATATATTAA [CACACA_site1332] | 8.37 ± 0.32
